Results: the supplement of paper PMC3334620
Whole data set: some 33,000 sequences, median “E-score (-0.5 to 0.5)” near -0.017, cut for the highest 2% near 0.3. The list shows a part of the results.

Biological target: T1, Sut1 (UniProt P53032)
T1 sequence: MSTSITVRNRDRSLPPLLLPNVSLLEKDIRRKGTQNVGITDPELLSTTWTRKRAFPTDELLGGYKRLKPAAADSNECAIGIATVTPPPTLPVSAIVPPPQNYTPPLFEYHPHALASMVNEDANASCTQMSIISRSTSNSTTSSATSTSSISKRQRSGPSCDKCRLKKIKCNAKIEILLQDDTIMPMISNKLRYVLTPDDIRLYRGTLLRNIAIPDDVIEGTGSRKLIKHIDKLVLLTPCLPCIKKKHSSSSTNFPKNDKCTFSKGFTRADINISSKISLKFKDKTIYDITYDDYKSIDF
Experiment: PBM E-score (8-mer binding enrichment) (E-score (-0.5 to 0.5)); higher = stronger / more preferred TF binding; most listed sequences are background and not binding sites
Details: protein concentration: 200 nM; construct: GST-full length
In short: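 Using PURExpress in vitro transcription/translation, GST-tagged yeast transcription factors were made in full-length or DNA-binding-domain form. These were applied at about 100-200 nM to double-stranded universal all-10-mer Agilent arrays, and bound protein was detected with fluorescent anti-GST. Scans were normalised with masliner before the Universal PBM Analysis Suite assigned E-scores to ungapped eight-base words pooled with their reverse complements.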

| Sequence | PBM E-score |
| --- | --- |
| AATTCAGT | -0.0626 |
| AATACGCT | 0.0763 |
| AAGAACCA | 0.0523 |
| CAGATGGC | -0.0583 |
| CATATGGC | -0.0639 |
| ACATGAAA | 0.00044 |
| GTTGGTGA | -0.0399 |
| ATTTGAGG | -0.161 |
| GGTCACTA | -0.0511 |
| AATTACAT | 0.193 |
| CGGGACAA | -0.15 |
| ATCGGTCG | -0.0794 |
| ACTAATAT | 0.211 |
| AACGCAAC | 0.126 |
| GTAAATGA | 0.153 |
| AAAGCTCG | 0.169 |
| GGTCTACA | 0.0554 |
| GATGTAGA | -0.0859 |
| GGCACCAA | -0.00537 |
| ATTCGGAC | 0.455 |
| CTCAATCA | 0.0165 |
| CCTGGCCC | -0.0837 |

| Sequence | PBM E-score |
| --- | --- |
| AGGCACCT | -0.131 |
| AATCTGCT | 0.0742 |
| AGGTTGCC | -0.216 |
| CTAAGTAA | 0.114 |
| ACGTAACG | -0.202 |
| AGTGGGTC | -0.134 |
| CTCCGTCA | 0.369 |
| AGCGCAAG | -0.23 |
| AAAATGAT | 0.342 |
| GGTGCCAC | -0.129 |
| TAATGATA | 0.317 |
| CGCTGCGA | -0.153 |
| ACGCTCTA | -0.26 |
| CTTTCCCA | -0.0281 |
| CCGTTACG | 0.00488 |
| GACGAGTC | -0.0919 |
| AGCGTAAC | 0.099 |
| AAAGTTGG | 0.136 |
| GAGCGTAA | 0.0537 |
| AGCCAACT | -0.0881 |
| ACGCCGAT | -0.0988 |
| AACTGATT | 0.0393 |

| Sequence | PBM E-score |
| --- | --- |
| GGAAGACC | 0.0221 |
| GCAAAGGC | -0.0759 |
| CACATAAG | -0.052 |
| ATTAGAAA | 0.139 |
| AGTATACT | 0.00364 |
| CACCGGGA | -0.0737 |
| CCGCCCTA | -0.0727 |
| CATTTAGC | -0.032 |
| GTAGAAGA | 0.0368 |
| AATACGAA | 0.169 |
| CACAACCC | -0.0775 |
| AACAGCTA | 0.0258 |
| GAAGAGAC | 0.0374 |
| CCATATAA | 0.0827 |
| AGCGTGCG | -0.0386 |
| TAGGGACA | 0.0209 |
| AAGAAGGG | -0.156 |
| GGAAGAAA | 0.122 |
| GCCAGGAC | -0.227 |
| AAAATATA | 0.267 |
| AGTTTGGA | 0.0671 |
| ATGCAAGG | -0.129 |

| Sequence | PBM E-score |
| --- | --- |
| CCCTTTGA | -0.302 |
| GCAGCCCA | -0.204 |
| AAACCTAG | -0.0283 |
| GCCGCACA | -0.218 |
| ATATAACC | 0.0866 |
| CTATAAAG | 0.235 |
| GATTTGCC | 0.0865 |
| AATCTCCC | -0.268 |
| AAGTTCAA | 0.0979 |
| AATCAGGT | 0.207 |
| TCAACTCA | -0.0289 |
| GAGCCAAA | -0.0398 |
| AGCTACCA | -0.0375 |
| CAATTAAG | 0.233 |
| AAACAGGT | -0.0573 |
| AGCTGTTC | -0.187 |
| CTGTGGCC | -0.237 |
| GACCGTGA | -0.0674 |
| CACCCATC | -0.101 |
| AAAGCAAA | 0.256 |
| ATTGTGCA | 0.124 |
| CTCTCAAG | 0.0127 |

| Sequence | PBM E-score |
| --- | --- |
| GAAGTCAC | -0.241 |
| AGCTCTTC | 0.0317 |
| CTCCCCCC | -0.31 |
| TATTTACA | 0.143 |
| ATCGACTG | 0.0191 |
| CCTTGTAG | -0.179 |
| ATTCGGAG | 0.432 |
| GGGCCCGA | -0.149 |
| CATAATGA | 0.237 |
| CGATGGTC | -0.158 |
| CAGCAACA | 0.193 |
| CCGGGCAC | 0.14 |
| AGGCACCC | -0.343 |
| ATCAATCG | 0.108 |
| ACATATTG | 0.0485 |
| AAGGCAGC | -0.0891 |
| CCAGAAAG | 0.165 |
| CACCCGGG | -0.197 |
| CAAGAGTG | -0.0639 |
| AGGTGATA | -0.0925 |
| AGCTTAGA | 0.0671 |
| CGTCAACA | -0.158 |
